# Assay results reported in the supplement of paper PMC11417369.
# ± gives the standard deviation of the averaged measurements. The list shows a part of the results.
# System: PfAP2-LT AP2 domain (GST-tagged)
# Experiment: gcPBM binding intensity (ln(normalized median fluorescence intensity)); higher = stronger DNA binding
# Method in brief: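 GST-fused DNA-binding domains of P. falciparum, expressed in E. coli, were applied at about 25 μg on average for 1 h to an Agilent 4 × 180k array of primer-extended double-stranded 36-bp intergenic genomic probes and negative controls. Binding intensity is the highest Masliner-normalised natural-log median intensity across replicate spots of either probe orientation, measured with Alexa488 anti-GST antibody and a 488 nm scan.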
row,Sequence,gcPBM binding intensity (ln)
1,AAATATTTTGCATACACATGCAAATATTTTTTACAT [TGCATGCA_site554],8.74 ± 0.45
2,AATATATATTTGTGTACACATTATATATATATATAT [CACACA_site6103],9.13 ± 0.33
3,AATCTCAGAATATACTGTACTTTAAGAAAAAAAAAA [XGTACX_site110],8.34 ± 0.42
4,AAAATTTAAATAGGAAGTACGTTCACTAAGAAAATA [XGTACX_site6546],8.79 ± 0.45
5,ATAATTTAAAAACATTGTACATTAATATATATGTAT [XGTACX_site8970],8.65 ± 0.39
6,ATAATAACTGATAAATGTACATATAAATTTTATGAT [XGTACX_site195],8.87 ± 0.42
7,TTTTATATTTTAAGAGTGCATTTTATATCTTTTTCT,8.6 ± 0.54
8,GAAAATATTAAATGAAGTACAATATTTATGTTACTT [XGTACX_site8737],8.62 ± 0.48
9,ATACTCACGAAACACACACACAATATATATATATAT [CACACA_site4136],9.84 ± 0.23
10,TTTATATTTCTTCATCGTACACATAAAAAAAAAAAA [XGTACX_site3244],8.09 ± 0.33
11,ATTTATTTTCTGTGTACACATATGTTGGGTATTTTA [CACACA_site5902],9.23 ± 0.36
12,AGAAAAAAAAAAAGTACACACATATAACATATAGAT [CACACA_site7410],9.19 ± 0.46
13,GTATATATCCCAAAATGTACATAATTTATTATTTAT [XGTACX_site2842],8.69 ± 0.49
14,ATAGGTAAAAAGTATACACACGTTGACACATTCTTT [CACACA_site4794],9.04 ± 0.38
15,AAATAATACAAGGGCTGTACATAAAAAGGAGTATAT [XGTACX_site839],9.12 ± 0.49
16,ATTTTAAAAAGGATAGTGCAAATGTTAAAATAGGAC,9.12 ± 0.46
17,GAAAATTTAAAAAGAGTGCATTATATGTTTGAATAT [GTGCAC_site9564],8.6 ± 0.46
18,CTTTTTTTCTTTCCAAGTACTAAATTCATACAAATT [XGTACX_site2605],8.46 ± 0.44
19,TTTAACGAATAAAAATGTACAAATTTATACATTTAT [XGTACX_site2805],8.47 ± 0.49
20,AATAAAATAATAAAAGCACACAAGAATACACCCAAA [CACACA_site7919],9.47 ± 0.35
21,CAAAAGGATGTGGGATGTACATATGAAAAAAAAAAA [XGTACX_site8059],8.9 ± 0.59
22,TTTTATTTATAATACTCACACATTTATATTACATAT [CACACA_site6000],8.98 ± 0.54
23,TTGTATGTAAAAAAGTGTACATGAGTGATTATATAA [XGTACX_site8166],8.76 ± 0.38

row,Sequence,gcPBM binding intensity (ln)
1,GGTCTTTTTTTCAAAAGTACATAAATAAAAAAGGTT [XGTACX_site2894],8.43 ± 0.49
2,ATTACTAAAAAATATAAACACACATATATTTTACAT [CACACA_site8633],8.9 ± 0.4
3,TAAATTTAAAAATCTGCACACATTTAAAAAAAAAAA [CACACA_site2515],8.71 ± 0.52
4,ATTATTTAAAAAAAATGTACATAATAAATATGAACG [XGTACX_site4010],8.62 ± 0.43
5,AATAAATGGAATGTCACACATATATATATATATATA [CACACA_site4869],9.97 ± 0.028
6,AGTGTATGTATATAAACACACATACATATTTATAAC [CACACA_site6777],9.29 ± 0.35
7,TAAATTAAAAAACACACACACAAAAAAAAAAAAAAA [CACACA_site2263],9.41 ± 0.51
8,AAAAAAAAGAAAGAAAGTACAAATTATAAAATGAAC [XGTACX_site860],8.97 ± 0.57
9,ATTTCTAAATGTTGGTGTACGTTTTTTTATAACCTT [XGTACX_site1752],8.93 ± 0.61
10,GGAAAACACAAAAACTGTACATTTATTCAACATATA [XGTACX_site5831],8.8 ± 0.57
11,TATATACATATATACACACACATATATATATATATA [CACACA_site2805],9.905 ± 0.0071
12,CAGGTGCACTATATTACACACGCTTCTTTTTTTTTA [CACACA_site2069],8.98 ± 0.37
13,TTGATATTATTGTATAAACATAATAGAGATAAAGAG [TGCATGCA_negctrl_site455],8.8 ± 0.52
14,TACAAAAAAATAAATAATAAAAAAAAATATATATAA [XGTACX_negctrl_site344],8.51 ± 0.42
15,TGAAGGATATATTCCGTGCACATATAAATATATACA,8.83 ± 0.4
16,AACATGTTAACTAAATGTACACACCTATGTTGATGT [XGTACX_site3777],9.23 ± 0.33
17,ATATAATGTTGTAATAGTACTTTTTTCATATAAATA [XGTACX_site2666],8.5 ± 0.38
18,TATTAACACAATAGCGCACACTTTTAATATTTTATA [CACACA_site1617],8.88 ± 0.37
19,AAAGAATACAAAATTGCACACATATTGTGAAAATGT [CACACA_site9327],9.38 ± 0.49
20,CTTAAATTGAAATGTTGTACAAAGTAAAAACAATGA [XGTACX_site2123],8.88 ± 0.44
21,CATATTTTATTATATACATGCAATTTTAATATATAT [TGCATGCA_site544],8.57 ± 0.4
22,TATAATTTAACGACATGTACATATAAAAAAATATTT [XGTACX_site2395],8.94 ± 0.38
